Measured values taken from article PMC4336329 (PLoS ONE, 2015).
Hit rate of the full screen: of about 310,000 compounds, about 14,000 (4.5%) showed an effect of 50% or more. The effect is printed as a negative number. This is one part of the list.

molecular target: human ether-à-go-go-related gene (hERG) potassium channel (human, UniProt Q12809); test: primary screen, population patch clamp on CHO cells stably expressing hERG
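Further: peak tail current of the secondary pulse compared with the same well before compound.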

human ether-à-go-go-related gene (hERG) potassium channel, sequence (Q12809 whole entry, looked up): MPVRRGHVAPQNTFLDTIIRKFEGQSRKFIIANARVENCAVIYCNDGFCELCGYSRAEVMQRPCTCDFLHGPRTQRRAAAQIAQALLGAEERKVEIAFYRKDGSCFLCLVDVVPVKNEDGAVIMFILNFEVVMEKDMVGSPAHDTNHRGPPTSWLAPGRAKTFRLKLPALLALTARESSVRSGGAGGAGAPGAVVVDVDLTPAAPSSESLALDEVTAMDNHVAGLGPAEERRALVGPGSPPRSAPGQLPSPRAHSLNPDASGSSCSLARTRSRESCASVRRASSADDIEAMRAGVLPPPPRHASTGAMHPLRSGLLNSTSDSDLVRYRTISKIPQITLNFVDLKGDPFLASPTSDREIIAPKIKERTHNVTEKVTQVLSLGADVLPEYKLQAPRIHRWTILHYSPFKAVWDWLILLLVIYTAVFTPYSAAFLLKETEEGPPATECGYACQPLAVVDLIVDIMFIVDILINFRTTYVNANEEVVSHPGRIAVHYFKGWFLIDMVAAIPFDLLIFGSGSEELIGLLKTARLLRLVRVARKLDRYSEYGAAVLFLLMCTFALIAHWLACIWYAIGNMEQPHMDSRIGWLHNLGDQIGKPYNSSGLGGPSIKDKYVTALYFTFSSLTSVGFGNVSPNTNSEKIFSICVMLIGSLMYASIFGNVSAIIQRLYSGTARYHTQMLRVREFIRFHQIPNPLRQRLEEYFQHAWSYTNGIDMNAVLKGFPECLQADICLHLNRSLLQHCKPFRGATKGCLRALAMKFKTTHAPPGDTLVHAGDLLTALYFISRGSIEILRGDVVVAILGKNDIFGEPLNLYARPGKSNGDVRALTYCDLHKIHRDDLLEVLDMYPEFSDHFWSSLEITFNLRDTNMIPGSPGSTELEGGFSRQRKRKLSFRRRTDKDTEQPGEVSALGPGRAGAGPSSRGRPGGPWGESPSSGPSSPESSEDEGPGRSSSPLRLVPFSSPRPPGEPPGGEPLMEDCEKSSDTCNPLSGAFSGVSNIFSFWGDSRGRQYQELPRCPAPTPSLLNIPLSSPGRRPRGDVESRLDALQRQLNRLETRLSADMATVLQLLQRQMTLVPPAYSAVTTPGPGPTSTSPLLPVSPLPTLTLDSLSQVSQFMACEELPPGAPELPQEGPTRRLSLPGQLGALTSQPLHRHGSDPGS

Structure (SMILES)	hERG current change (%, negative = inhibition) at 10uM
CCOC(=O)c1cc(-c2ccccc2)sc1NC(=O)C(C)OC(=O)c1cccc(S(=O)(=O)N(C)C)c1 (stereo not drawn)	7.41%
Cl.O=C(Oc1cccnc1)c1ccc(Cl)cc1	-21.3%
NC(=O)COC(=O)c1cc(=O)[nH]c2ccc(S(=O)(=O)Nc3ccc(F)cc3)cc12	21.9%
CCN(CC)S(=O)(=O)c1cccc(C(=O)Nc2nc3cc4c(cc3s2)OCCO4)c1	0.652%
CC(OC(=O)Cn1[nH]c(=O)c2ccccc2c1=O)C(=O)Nc1ccc(Cl)cn1 (stereo not drawn)	-8.11%
COc1ccccc1C(=O)Nc1ccc(CN2CCCCC2)cc1	-28.4%
CCCCn1ccnc1C(=O)c1ccc(S(=O)(=O)N(CCOC)CCOC)cc1	-1.47%
Cc1onc(-c2ccccc2Cl)c1C(O)c1ccc(F)cc1 (stereo not drawn)	9.8%
COc1ccc(S(=O)(=O)N2CCOCC2)c(C)c1C	5.99%
COc1ccc(N2CCN(c3ccc(N4C(=O)CC(C)C4=O)cc3[N+](=O)[O-])CC2)cc1 (stereo not drawn)	-0.69%
COc1cccc(-c2ncc3ccccc3c2COC(=O)CCCC(=O)O)c1	-2.2%
NC(=S)Nc1ccccc1Br	-10.5%
CCOc1cc(NC(=O)C2CCCCC2)c(OCC)cc1NC(=O)c1ccco1	9.17%
CC1CCCN(C(c2cccs2)c2nnnn2Cc2ccccc2)C1.Cl (stereo not drawn)	-13%
Cc1ccc(CC(=O)N2CCN(c3cccc(C(F)(F)F)c3)CC2)cc1	-9.64%
Cc1ccccc1OCC(=O)NCC1CCCO1 (stereo not drawn)	13.3%
N#Cc1c(F)cccc1N1CCC(C#N)CC1	8.29%
NC(=O)C1CCN(C(=O)c2ccc(C(F)(F)F)cc2)CC1	7.3%
O=C(CN1CCOc2ccccc21)N1CCC(Cc2ccccc2)CC1	-26.3%
Cc1cccc2c3c([nH]c12)C(=O)CC(C)(C)S3	36.5%
CC1=C(C(=O)NC2CCCc3c2cnn3-c2ccc(F)cc2F)OCCO1 (stereo not drawn)	17.9%
CN1CCN(c2ccc(S(=O)(=O)N3CCCCC3)cc2NC(=O)/C=C/c2ccc(Cl)c([N+](=O)[O-])c2)CC1	-17.4%

Structure (SMILES)	hERG current change (%, negative = inhibition) at 10uM
COC(=O)CNC(=O)COc1ccccc1	7.53%
CCCNC(=O)/C=C/c1ccc(S(=O)(=O)Nc2ccccc2OC)cc1	-1.75%
COc1ccc(CN2CCNC(=O)C2CC(=O)NC2CCCCC2)c(OC)c1 (stereo not drawn)	-0.841%
S=c1[nH]nc(-c2cc3c(s2)-c2ccccc2CC3)o1	13.1%
CCOC(=O)N1CCC(NC(=O)c2cnc3n(c2=O)CCS3)CC1	6.23%
CC(=O)c1c(C(C)=O)c(C)n(-c2nc(-c3ccc(Br)cc3)c(C)s2)c1C	20%
CCC(=O)Nc1ccccc1C(=O)OCC(=O)c1ccccc1	-28.1%
O=S1(=O)CCC(NS(=O)(=O)/C=C/c2ccccc2)C1 (stereo not drawn)	-0.272%
COc1cc(OC)c(NC(=O)CCNC(=O)Cn2ccc3ccccc3c2=O)cc1Cl	7.45%
CC(C)(C)n1nc(-c2ccc(Cl)cc2)c2c(N)ncnc21	13%
N#Cc1ccc(C(=O)OCC(=O)NC(=O)NC2CCCCC2)cc1	8.67%
Cc1cc(NC(=O)/C=C/C(=O)N(CC(=O)NC2CCCC2)c2cccc3ccccc23)no1	-3.79%
CCC(C)(C(=O)NC1CCCCC1)N(Cc1cccs1)C(=O)CC1NC(=O)NC1=O (stereo not drawn)	-1%
COc1ccccc1N1CCN(C(=O)C(C)N(c2ccc(C)c(C)c2)S(C)(=O)=O)CC1 (stereo not drawn)	-6.79%
Cc1cc(OCC(=O)N2CCC[C@@H]2C(=O)O)c2c(C)c(C)c(=O)oc2c1	7.84%
CN1C(=O)C(=CN2CCN(C(=O)c3ccco3)CC2)C(=O)N(C)C1=S	3.18%
O=C(NNC(=O)c1cc2cc(Br)ccc2oc1=O)c1ccc(O)cc1O	35.4%
CCC(=O)Oc1c(S(=O)(=O)c2ccc(C)cc2)c(C)nn1C(C)(C)C	-8.98%
CCOC(=O)c1cc2n(c1/N=C/N(C)C)-c1ccccc1C2=O	2.49%
COc1ccc(-c2cc(C)no2)cc1S(=O)(=O)N1CCOc2ccc(Cl)cc21	7.56%
Cc1ccc(-c2nnc(-c3cccc(Br)c3)o2)cc1	13.3%
CCOC(=O)c1ccc(NS(=O)(=O)c2cc3c4c(c2)CCN4C(=O)CC3)cc1	-9.74%

Structure (SMILES)	hERG current change (%, negative = inhibition) at 10uM
O=C1COc2ccc(S(=O)(=O)CCC(=O)NC3CCCCC3)cc2N1	11.8%
Cn1c(CNC(=O)CNS(=O)(=O)c2ccccc2)cc(=O)n(C)c1=O	26.2%
Cc1ccc(C(=O)NCCOc2ccc(Cl)cc2)cc1	1.42%
Br.CC(=O)c1sc(Nc2ccccn2)nc1C	6.59%
Cc1[nH]c2ccccc2c1C(=O)CSC(=S)N(C)C	18.8%
O=S(=O)(c1ccc(F)cc1)n1ccc(-c2cccc(OCc3c(F)cccc3Cl)c2)n1	-0.413%
COc1ccc(NC(=O)N2CCNC(=O)C2CC(=O)Nc2ccc(F)cc2)cc1 (stereo not drawn)	17.1%
Cc1ccc(C)c(N2CCN(c3cnn(-c4nc5ccccc5s4)c(=O)c3Cl)CC2)c1	-13.8%
CC(C)Oc1ccc(OCCNC2CCCC2)cc1	-18.3%
C/C(=N\OCC(=O)OCC(=O)NCc1ccccc1)c1ccc2c(c1)OCO2	-5.72%
Cc1ccc2nc(NC(=O)c3ccc(S(=O)(=O)N4CCCc5ccccc54)cc3)sc2c1	-3.33%
O=C(COc1ccc2ccccc2c1)NNC(=O)c1ccc([N+](=O)[O-])cc1	-1.08%
Cc1oc(C(=O)O)cc1COc1ccc2c3c(c(=O)oc2c1C)CCC3	9.21%
COc1cc(/C=C/C(=O)NCCc2ccc(S(N)(=O)=O)cc2)ccc1OCC#N	14.8%
CC(C)N(C(=O)CSc1ccc(S(=O)(=O)N2CCCCC2)cn1)c1ccccc1	-14.1%
O=C(CCc1nc(-c2ccccc2)c(-c2ccccc2)o1)OCc1ccc(Br)cc1	21.4%
CN(Cc1ccc(F)cc1)C(=O)c1cccc(OCc2ccccc2)c1	-16.9%
O=C(NCc1cccnc1)C1CC(=O)N(c2ccc(F)cc2)C1 (stereo not drawn)	-15.1%
O=C(NNC(=O)c1ccc2ccccc2c1O)NC1CCCCC1	21.9%
CCc1ccc(NC(=O)C(=O)NNC(=O)c2cccs2)cc1	-1.68%
CCN(CC(=O)Nc1ccc(NC(C)=O)cc1)CC(=O)Nc1cccc(Cl)c1	-5.97%
COc1ccc(-c2cc(=O)[nH]c(=O)[nH]2)cc1	-3.74%

Structure (SMILES)	hERG current change (%, negative = inhibition) at 10uM
Cn1cnnc1Sc1ccc(/C=C/C(=O)c2ccc(O)cc2)cc1[N+](=O)[O-]	-0.376%
COc1ccc([N+](=O)[O-])cc1N(CC(=O)Nc1ccccc1C(=O)N1CCCC1)S(C)(=O)=O	-0.288%
O=C(CSc1nnc(-c2cccnc2)n1Cc1ccccc1)NCc1ccccc1	-14.1%
O=C1c2ccccc2C(Nc2ccc(Cl)cn2)N1c1ccccn1 (stereo not drawn)	-6.43%
Cc1ccc(NC(=O)CCCCCCCCCCC2COCCO2)c(C)c1 (stereo not drawn)	11.8%
Cn1ccnc1SC(=O)N1c2ccccc2Sc2ccccc21	-3.05%
CC(=O)N1CC(=O)N=C1SCC(=O)Nc1nc(-c2ccccc2)c(-c2ccccc2)s1	-47.2%
CC1CCN(S(=O)(=O)c2ccc3c(c2)N(CC(=O)NCCCN2CCCCC2C)C(=O)CS3)CC1 (stereo not drawn)	0.668%
COC(=O)c1nn(-c2ccccc2)nc1-c1nn(-c2ccccc2)nc1C(=O)OC.Cl	1.21%
O=C(OC(C(=O)NCc1ccco1)c1ccc(Cl)cc1)c1cccs1 (stereo not drawn)	17.6%
O=C(COc1ccc(Cl)cc1)NNC(=O)c1ccncc1	-16.6%
O=C(OCc1cccc(F)c1)c1ccc2c(c1)-c1ccccc1C2=O	-4.96%
C/C(=C1/SC(N2CCCC2)=NC1=O)c1ccc(Br)cc1	-76.7%
CCc1c(C)[nH]c(=S)c(C#N)c1C	13.8%
CCCC1Oc2ccccc2C(=O)N(CC(=O)c2ccc3c(c2)OCCO3)C1=O (stereo not drawn)	14.1%
CC(C)Cc1ccc(CN2CCCC(NC(=O)c3cccc(-n4cnnc4)c3)C2)cc1 (stereo not drawn)	-81%
Cc1ccc2nc(N3C(=O)C(O)=C(C(=O)c4ccco4)C3c3cccs3)sc2c1.O=C(O)C(=O)O (stereo not drawn)	-5%
CC(=O)Oc1cc2c(C(C)=O)coc2c2ccccc12	-1.54%
O=C(CCc1ccccc1)NNC(=O)COc1ccc(Br)cc1	26.6%
O=C(Nc1ccc(S(=O)(=O)Nc2ncccn2)cc1)c1ccc(Cl)c([N+](=O)[O-])c1	12.6%
O=C(c1cccc(-c2ccccc2)c1)N1CC[C@@H](N2CCC(O)CC2)[C@H](O)C1	-16.2%
